Source: PubChem BioAssay AID493208 (National Center for Advancing Translational Sciences (NCATS), 2011)
In all, about 44,000 compounds went through this assay and about 340 (0.77%) were called active. About 5% were inconclusive and are not listed. Calls come from the whole dose curve; as a rule, active = well fitted inhibition curve with a large enough effect; inconclusive = small, poorly fitted or top-dose-only effect; inactive = flat fitted curve, though single readings scatter. Some of the results follow.

Assay: Acumen qHTS Assay for Inhibitors of the mTORC1 Signaling Pathway in MEF (Tsc2-/-, p53-/-) Cells: Sytravon;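 note: plate controls were DMSO for no effect and rapamycin for full effect; nearly all actives have a fitted effect of over 50% in size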
Conditions: phospho-rpS6 immunofluorescence/PI, 24 h; series mostly up to 38.3 µM; activity change, negative = inhibition: at the top concentration
In short: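 Tsc2-/-, p53-/- mouse embryonic fibroblasts (empty-vector line) exposed to compound 24 hrs at 37 C, fixed, immunostained for phospho-rpS6 and counterstained with propidium iodide. Acumen laser scanning gives % positive cells from Alexa 488/PI ratio, thresholded using 7.5 nM rapamycin; PI count gives viability.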

Activity change, negative = inhibition, inactive:
COc1nc(-c2ccc(C)cc2)ccc1-c1noc(-c2ccc(C(C)(C)C)cc2)n1 12.5%
CCc1c(C)c2ccc(O)c(CN3CCN(c4ccccc4)CC3)c2oc1=O 0.481%
CCOc1ccc2oc(=O)cc(CN3CCN(c4ccc(Cl)cc4)CC3)c2c1 -0.447%
CC(=O)N1CCc2cc(Br)cc(S(=O)(=O)CCC(=O)Nc3ccc(C)cc3Cl)c21 1.91%
CCOC(=O)c1c(NC(=O)COc2ccc(Cl)cc2C)sc(C(C)=O)c1C 8.29%
CCN1CCN(c2cc(C)c3cc(NC(=O)c4ccccc4F)ccc3n2)CC1 -25.4%
CCc1cccc(C)c1NC(=O)CN(C)S(=O)(=O)c1cccc2nsnc12 -4.6%
Cc1ccc(N2CCN(c3nc4c(S(=O)(=O)c5ccc(C)c(C)c5)nnn4c4ccccc34)CC2)c(C)c1 -3.28%
Cc1c(C(=O)N(Cc2ccc(N(C)C)cc2)CC2CCCO2)oc2ccc(Br)cc12 (stereo unspecified) -6.3%
Cc1ccc(S(=O)(=O)c2cn(C)c3cc(N4CCCCC4)c(F)cc3c2=O)cc1 -0.407%
COc1ccc(C)cc1NC(=O)N1CCC(CN2CCC(C)CC2)CC1 0.224%
CNC(=O)C1CCC(Cn2c(=O)c3sccc3n(CC(=O)NCc3cccc(OC)c3)c2=O)CC1 (stereo unspecified) 10.1%
Cc1cc(C)cc(Nc2cc(C)nc3nncn23)c1 0.766%
Cc1cccc(-c2nc3scc(CCNC(=O)c4ccc(Br)o4)n3n2)c1 -18.9%
CCC(CC)C(=O)Nc1ccc(-c2cn3cccnc3n2)cc1 5.18%
COc1ccc(CNC(=O)CN2C(=O)COc3ccc(S(=O)(=O)NC4CCCC4)cc32)cc1 2.38%
COc1ccc(CCNC(=O)CCc2c(C)nc3cc(-c4ccccc4OC)nn3c2C)c(OC)c1 -6.73%
CCOC(=O)N1CCN(c2ncc3c(n2)CC(c2ccccc2O)CC3=O)CC1 (stereo unspecified) 2.71%
COc1ccc(/C=C\c2onc(C)c2S(=O)(=O)N2CCC(C(=O)Nc3cccc(Cl)c3)CC2)cc1 -11%
COc1cccc(C(=O)N2CCc3c([nH]c4ccccc34)C2c2ccc(SC)cc2)c1 (stereo unspecified) -0.338%
Cc1ccc(Nc2nnc(-c3cc4c(ccc5ccccc54)oc3=O)s2)cc1 1.8%
COc1cccc(CNC(=O)CCCN2C(=O)CCn3nc(-c4cccn4C)cc32)c1 -2.26%
CCOC(=O)c1cccc(NC(=O)Cn2c(=O)nc(-c3ccccc3F)c3cc(Cl)ccc32)c1 1.57%
CCOc1ccc(CCNC(=O)c2csc3c2CCCCC3)cc1 0.863%
CCn1c(=O)c2cc(C(=O)N(CC(C)C)CC(C)C)sc2c2ccccc21 -9.68%
Cc1ccc(CNc2ncnc3c2nc2n3CCCC2)cc1 -1.37%
CCN(C(=O)CSc1nc2ccccc2n1CC(=O)NCc1ccc(OC)cc1)c1ccccc1 4.24%
CCOC(=O)c1ccc(NC(=O)CN2c3ccccc3S(=O)(=O)c3ccccc32)cc1 -5.92%
CCOC(=O)c1cc(-c2ccccc2)n(CCC(=O)NC2CCCCC2)c1C -0.287%
Cc1ccc2nc(CSc3nnc(NC(=O)c4cccc(Br)c4)s3)cc(=O)n2c1 6.8%
COc1ccc(-c2c(C)nn3c(N4CCN(c5ccccc5)CC4)cc(C)nc23)cc1OC -12.5%
COc1ccc(NC(=O)CC2C(=O)N(c3ccc(F)cc3)C(=O)N2Cc2ccc3c(c2)OCO3)cc1 (stereo unspecified) 2.05%
CCCn1c(=N)c(C(=O)NC2CCCC2)cc2c(=O)n3cccc(C)c3nc21 3.08%
COc1ccc(/C=C(/C#N)c2nc(-c3ccc(-c4ccccc4)cc3)cs2)cc1OC 7.56%
CCc1cccc(C)c1NC(=O)c1cc(S(=O)(=O)N2CCOCC2)cn1C 2.78%
CCOC(=O)c1ccccc1NC(=O)n1ncc2cc(Cl)ccc21 1.59%
Cc1noc(C)c1S(=O)(=O)Nc1ccc(C(=O)Nc2ccc(Br)cc2)cc1 0.313%
COc1cc(NC(=O)CCn2cnc3ccccc3c2=O)cc(OC)c1 -1.91%
CCOc1cccc(C(=O)Nc2ccc3oc(-c4cccnc4)nc3c2)c1 -17.9%
CCCCOc1ccc(CNC(=O)c2cc3n(n2)CCCN(Cc2ccc(C)cc2)C3=O)cc1 15.8%
COc1ccc(OCCn2c(C)nc3cc(C)c(C)cc32)cc1 -4.94%
CCCCSCCCNC(=O)c1cn(CC)c2ccc(S(=O)(=O)N3CCCCCC3)cc2c1=O -4.25%
CCCOc1ccc(C(=O)Nc2cc(-c3nc4cc(C)cc(C)c4o3)ccc2C)cc1 3.73%
CN1C(=O)c2ccccc2Sc2ccc(NC(=O)N3CCN(c4ccccc4F)CC3)cc21 -13.8%
Clc1ccc(CCNC(c2nnc(-c3ccccc3)o2)c2ccccc2Cl)cc1 (stereo unspecified) -0.815%
CC(C)NC(=O)C1CCN(C(=O)N2CCOc3ccc(Cl)cc32)CC1 -0.609%
Cc1ccc(-c2noc(-c3ccc(N4CCCCC4)c([N+](=O)[O-])c3)n2)cc1 0%
CNC(=O)COc1ccc(NC(=O)c2ccc(-c3nn(C)c(=O)c4ccccc34)cc2)cc1 1.68%
CCn1c(SCc2ccccc2Cl)nc(=O)c2c(C(=O)OC)cc(C3CC3)nc21 -8.14%
Cc1cc(C)c2c(-n3cccc3)c(C(=O)NCCCN3CCCCC3C)sc2n1 (stereo unspecified) -9.71%
COc1cc(-c2noc(-c3cc(C(C)C)[nH]n3)n2)cc(OC)c1OC -23.2%
CCOC(=O)c1c(NC(=O)c2cc(=O)c3c(C)cc(C)cc3o2)sc(C(C)=O)c1C 2.12%
CC(=O)Nc1nonc1-c1nnc(SCc2ccc(Cl)cc2)n1C -3.55%
Cc1nn(S(=O)(=O)c2ccc(Cl)cc2)c(C)c1S(=O)(=O)N1CCCCCC1 -5.9%
Cc1ccc2cccc(NC(=O)c3ccc(-c4ccc(Br)cc4)o3)c2n1 -1.21%
Cc1cc(=O)c2cc(C(=O)Nc3ccccc3)ccc2[nH]1 2.33%
CCc1ccc(-n2c(-c3ccccc3)c(C)n3c4c(=O)n(C)c(=O)n(C)c4nc23)cc1 3.09%
COc1cccc(N2C(=O)N(CC(=O)NCc3cccc(OC)c3OC)c3ccccc3S2(=O)=O)c1 -1%
COc1cccc(C2C(C(=O)Nc3ccccc3OC)=C(C)Nc3nc4ccccc4n32)c1 (stereo unspecified) -27%
CCc1ccccc1Nc1ncnc2c1nc1n2CCCC1 5.72%
O=C(Nc1ccc(F)cc1)c1cccn1-c1nnc(N2CCCCC2)s1 0.981%
COc1ccccc1N1CCN(C(=O)CCS(=O)(=O)c2cc(Br)cc3c2N(C(=O)C2CC2)CC3)CC1 -11.1%
CCOC(=O)c1c(C)oc2nc(C)nc(N3CCN(c4ccccc4)CC3)c12 2.26%
O=C(CSc1nnc(CNC(=O)c2ccccc2)n1-c1cccc(Cl)c1)Nc1ccccc1F 1.23%
COc1ccc2oc(=O)c(C(=O)NCCc3c(C)[nH]c4ccc(Br)cc34)cc2c1 -7.15%
CCCNC(=O)c1cnc2sc(N3CCCCC3)nn2c1=O 6.1%
Cc1cn2c(=O)cc(COc3ccccc3NC(=O)c3ccccc3C)nc2s1 2.92%
Cc1ccc(-c2csc(/C(C#N)=C/c3ccccc3Cl)n2)cc1 -2.86%
O=C(NCc1cccc(F)c1)C1CCN(C(=O)c2sccc2-n2cccc2)CC1 -0.881%
O=C(Nc1cc(NC(=O)c2ccccc2Cl)ccc1Cl)c1ccccc1 3.16%
CCOc1ccccc1CNC(=O)c1ccc2nc(Cc3ccc(OC)cc3)oc2c1 -2.12%
COc1ccc(CNC(=O)c2ccc(Cn3c(=O)c4cccn4c4cccnc43)cc2)cc1OC -22.2%
COc1ccc(N2CCN(C(=O)CCNS(=O)(=O)c3ccc4c(c3)CCN4C(=O)C3CC3)CC2)cc1 -16.5%
CCOCCCNC(=O)NC(CCC(C)C)c1c(-n2cccc2)sc2c1CCN(C)C2 (stereo unspecified) -13.2%
CCc1ccc(NC(=O)CSc2cn(CC(=O)N3CCCC3)c3ccccc23)cc1 -3.92%
Cc1ccc(OCC(=O)Nc2ccc(S(=O)(=O)Nc3ncccn3)cc2)c(C(C)(C)C)c1 12.3%
CN1CCN(CCCNC(=O)c2cnn(-c3ccccc3)c2-n2cccc2)CC1 -0.669%
O=c1c2sc3ccccc3c2n(Cc2cccc(C(F)(F)F)c2)c(=O)n1Cc1ccco1 1.06%
Cc1ccc(C)c(-c2nc(Cn3c(=O)cc(-c4ccccc4)c4c(C)nn(C)c43)c(C)o2)c1 -8.49%
CC(C)(C)C(=O)CSc1nc2ccsc2c(=O)n1Cc1ccccc1F -2.23%
CCOc1ccc(NC(=O)Cn2cc(C(=O)c3ccc(CC)cc3)c(=O)c3cc(C)ccc32)cc1 6.47%
COc1cccc(-c2nc(SCc3cc(=O)c4ccc(C)c(C)c4[nH]3)n[nH]2)c1 0%
Cc1ccc(Cc2nc3ccccc3nc2SCC(=O)NCCC(C)C)cc1 -3.55%
COc1ccc(NC(=O)c2csc3c2CCCCC3)cc1 -9.72%
Cc1ccc(Cc2c(C)nc3nc(SCC(=O)NC(C)c4ccccc4)nn3c2C)cc1 (stereo unspecified) 2.15%
CCCN(C(=O)c1nn(-c2ccc(OC)cc2)c(=O)c2c1c1ccccc1n2C)c1ccc(CC)cc1 2.47%
COc1ccc(S(=O)(=O)c2nnn(-c3cc(Cl)c(OC)cc3OC)c2C)cc1 -19%
CCOCCCn1c(SCC(=O)Nc2ccc(C(C)C)cc2)nc2c(sc3ccccc32)c1=O -0.182%
O=C(CSc1nc2c([nH]c3ccccc32)c(=O)n1-c1ccc(F)cc1)NCc1ccccc1 -13.1%
Cn1c(=O)c2c(-c3ccccc3)n3c4ccccc4nc(-c4ccccc4)c3c2n(C)c1=O -1.47%
COC(=O)c1cc2occc2n1Cc1nc(-c2ccccc2F)oc1C 0.886%
COc1ccc(C(=O)NCC(c2cccnc2)N2CCc3ccccc3C2)cc1OC (stereo unspecified) 6.6%
CCn1c(=O)c2cc(C(=O)Nc3cc(F)ccc3F)sc2c2ccccc21 -11.7%
O=C(Nc1cccc(-c2nc3cc(Cl)ccc3o2)c1)c1cc([N+](=O)[O-])ccc1N1CCOCC1 1.12%
COc1ccc(CN2C(=O)c3oc4ccccc4c(=O)c3C2c2ccc(O)cc2)cc1 (stereo unspecified) -0.943%
O=C(Cn1cnc2c(oc3ccccc32)c1=O)Nc1ccccc1C(F)(F)F 5.38%
